According to PubChem BioAssay AID1347165 (National Center for Advancing Translational Sciences (NCATS), 2019):
Screen size: about 220,000 compounds; about 5,700 (2.6%) were called active. The inconclusive results got no clear call from the source; some entries with a clear call stand among them for comparison. Calls follow the shape of the dose curve; as a rule, active = well fitted inhibition curve with a large enough effect; inconclusive = small, poorly fitted or top-dose-only effect; inactive = no such curve, though single readings can be large or run the other way. A potency beside an inconclusive call is a rough fit, not a confirmed value.

target: Lysine-specific demethylase 5B (Homo sapiens) (UniProt Q9UGL1); assay: Primary screen for KDM5B Histone Demethylases FDH-coupled qHTS; conditions: FDH-coupled NADH fluorescence (FDH is formaldehyde dehydrogenase); activity change, negative = inhibition: at 57.7 µM (top of the series) unless noted; also: nearly all actives have a fitted effect of over 70% in size; as to activity change, negative = inhibition: 0% is about no effect
Method in brief: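 KDM5BΔAP (200 nM final) in 50 mM HEPES pH 7.5, 0.01% Tween-20 was preincubated 10 min at RT with compound over a concentration range. Substrate mix (H3K4me3 12.5 µM, α-KG 25 µM, Fe²⁺, ascorbate, NAD⁺, FDH) was added, and NADH fluorescence change over 30 min gave dose-response curves.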
Potency is read from the fitted curve at half-maximal effect; tags tell the direction and shape of the fitted curve.

Sequence of UniProt Q9UGL1 (Q9UGL1 whole entry, looked up): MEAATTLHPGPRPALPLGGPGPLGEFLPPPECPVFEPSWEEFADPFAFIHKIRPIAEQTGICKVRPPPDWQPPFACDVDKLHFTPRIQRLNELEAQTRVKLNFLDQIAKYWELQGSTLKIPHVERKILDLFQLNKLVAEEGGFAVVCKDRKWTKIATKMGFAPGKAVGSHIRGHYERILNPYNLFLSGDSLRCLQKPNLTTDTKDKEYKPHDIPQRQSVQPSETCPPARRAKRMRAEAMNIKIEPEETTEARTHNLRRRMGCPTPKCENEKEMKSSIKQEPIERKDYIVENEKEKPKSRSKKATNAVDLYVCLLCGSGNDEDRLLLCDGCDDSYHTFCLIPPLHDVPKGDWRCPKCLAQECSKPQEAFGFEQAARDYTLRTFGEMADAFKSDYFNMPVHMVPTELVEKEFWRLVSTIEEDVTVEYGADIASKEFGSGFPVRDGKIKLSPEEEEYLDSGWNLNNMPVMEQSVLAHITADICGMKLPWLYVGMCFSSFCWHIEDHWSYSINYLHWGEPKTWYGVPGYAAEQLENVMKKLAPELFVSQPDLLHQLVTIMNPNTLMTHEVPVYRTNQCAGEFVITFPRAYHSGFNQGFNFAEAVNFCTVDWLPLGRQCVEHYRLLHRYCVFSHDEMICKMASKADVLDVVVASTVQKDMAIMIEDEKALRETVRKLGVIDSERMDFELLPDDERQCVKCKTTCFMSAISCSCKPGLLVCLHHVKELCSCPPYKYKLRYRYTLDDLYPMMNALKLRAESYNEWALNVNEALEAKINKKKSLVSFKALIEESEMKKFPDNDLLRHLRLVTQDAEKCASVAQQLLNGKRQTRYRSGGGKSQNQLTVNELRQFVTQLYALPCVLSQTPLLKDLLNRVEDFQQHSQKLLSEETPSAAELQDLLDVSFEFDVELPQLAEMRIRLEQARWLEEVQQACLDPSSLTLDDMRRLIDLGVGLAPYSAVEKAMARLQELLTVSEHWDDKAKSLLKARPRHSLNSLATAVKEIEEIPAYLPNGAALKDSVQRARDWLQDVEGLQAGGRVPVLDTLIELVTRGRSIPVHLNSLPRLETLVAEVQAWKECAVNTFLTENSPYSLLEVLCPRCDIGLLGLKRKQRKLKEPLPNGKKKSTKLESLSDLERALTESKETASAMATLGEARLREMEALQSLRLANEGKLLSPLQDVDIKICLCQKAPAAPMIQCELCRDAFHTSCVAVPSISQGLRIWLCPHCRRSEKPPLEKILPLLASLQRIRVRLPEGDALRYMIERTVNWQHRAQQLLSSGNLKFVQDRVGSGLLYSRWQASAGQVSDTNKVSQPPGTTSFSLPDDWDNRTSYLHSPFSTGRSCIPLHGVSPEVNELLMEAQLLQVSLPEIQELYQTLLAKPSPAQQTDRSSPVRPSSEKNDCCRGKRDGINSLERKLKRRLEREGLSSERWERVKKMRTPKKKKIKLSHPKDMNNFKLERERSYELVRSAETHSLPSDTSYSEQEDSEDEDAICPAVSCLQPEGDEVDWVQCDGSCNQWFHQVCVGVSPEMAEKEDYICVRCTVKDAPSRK

SMILES	Potency	activity change, negative = inhibition
CC1(COCC2CC2)COc2ccc(C(=O)Nc3cccc([S+](C)(=O)[O-])c3)cc2N1 (stereo not drawn)	inconclusive: 31.6 µM [inhibitor, single point]	–
Nc1nccnc1C(=O)NCc1ccc(Oc2ccc(F)cc2)cc1	inconclusive: 14.1 µM [inhibitor, partial curve, poor fit]	–
CCCCN1Cc2c(nc3cc(-c4ccco4)[nH]n3c2=O)C1=O	inconclusive: 20 µM [inhibitor, partial curve, poor fit]	–
CC(C)OCCCN(Cc1ccco1)C(=O)c1cc2c(s1)-c1ccccc1OC2	inconclusive: 35.5 µM [inhibitor, partial curve, poor fit]	–
Cc1cc(C(=O)N[C@@H]2C[C@H](Cn3cc(CN4CCS(=O)(=O)CC4)nn3)[C@@H](O)[C@H]2O)no1	inconclusive: 20 µM [inhibitor, partial curve]	–
Cc1ccc(C(=O)N[C@@H]2C=C(C(=O)NCC(N)=O)C[C@@H](O)[C@@H]2O)cc1	inconclusive: 28.2 µM [inhibitor, partial curve]	–
Cc1ccc(-c2nc(CC(=O)NCc3ccc(Cl)cc3)cs2)o1	inconclusive: 39.8 µM [inhibitor, single point]	–
O=C(Nc1ccccc1C(=O)Nc1nnc(C(F)(F)F)s1)c1ccccc1	inconclusive: 12.6 µM [inhibitor, partial curve, poor fit]	–
Cn1c(=O)n(C)c2cc(NS(=O)(=O)c3ccccc3)c(NCc3ccccc3)cc21	inconclusive: 15.8 µM [inhibitor, partial curve, poor fit]	–
O=C(NCCO)C(=O)Nc1c2c(nn1-c1ccc(F)cc1)CSC2	inconclusive: 25.1 µM [inhibitor, single point]	–
COC[C@@H]1CN(Cc2ccccn2)C[C@H]1C(=O)N(C)C	inconclusive: 8.91 µM [inhibitor, partial curve, poor fit]	–
COc1ccc(-c2cc(-c3ccncc3)c3cncn3c2)cn1	inconclusive: 35.5 µM [inhibitor, single point]	–
COc1ccc(S(=O)(=O)NCC(=O)O)cc1F	–	inactive: 13.5%
c1cc(CNCCCN2CCCCC2)ccn1	–	inactive: 24.7%
O=C(CCC1CCCC1)N1CCN(C(=O)c2cc(=O)[nH]c3ccccc23)CC1	–	inactive: -25.1%
COc1cccc(NC(=O)Nc2cc(-c3cn4cccnc4n3)ccc2C)c1	inconclusive: 14.1 µM [inhibitor, partial curve, poor fit]	–
CCC(Sc1nnc(C)n2c1cc1occc12)C(=O)Nc1ccccc1F (stereo not drawn)	inconclusive: 28.2 µM [inhibitor, partial curve, poor fit]	–
O=C(Cn1c(=O)n(Cc2ccco2)c(=O)c2oc3ccccc3c21)Nc1ccc(F)cc1F	inconclusive: 31.6 µM [inhibitor, single point]	–
O=C1CN(C(=O)CCn2c(-c3ccccc3)cc3ccccc32)CCN1	inconclusive: 28.2 µM [inhibitor, partial curve, poor fit]	–
CN(C)C[C@@H]1CN(C)C[C@H]1NC(=O)c1ccnnc1	–	inactive: -4.54%
O=C(/C=C/c1cc(O)ccc1Br)c1ccc(Cl)cc1Cl	inconclusive: 20 µM [inhibitor, partial curve, poor fit]	–
COc1ccc(CN(C)C(=O)c2cc(-c3ccc(OC)c(OC)c3)nc3ccccc23)c(OC)c1	inconclusive: 39.8 µM [inhibitor, partial curve, poor fit]	–

SMILES	Potency	activity change, negative = inhibition
COCCN1CCC(C(=O)N2CCn3nc(Cc4ccccc4)cc3C2)C1 (stereo not drawn)	inconclusive: 35.5 µM [inhibitor, partial curve, poor fit]	–
O=C(CSc1cnc2cc(S(=O)(=O)N3CCCCC3)ccc2n1)Nc1ccccc1	–	inactive: -7.31%
COCCNC(=O)c1ccc2nnc(-c3cncc(Cl)c3)n2c1	active: 100 µM	–
CN(C)Cc1nnc(C2CCCN(C(=O)c3cnn4ccccc34)C2)n1C (stereo not drawn)	inconclusive: 31.6 µM [inhibitor, partial curve, poor fit]	–
CC1CCN(C(=O)Cc2n[nH]c(=O)c3ccccc23)CC1	–	inactive: 6.73%
C[C@]1(CO)[C@H]2Cc3sc(NC(=O)c4cccc(F)c4)nc3[C@@H](CC(=O)N3CCOCC3)[C@]2(C)CC[C@H]1O	inconclusive: 39.8 µM [inhibitor, partial curve, poor fit]	–
O=C(c1ccccc1Cl)N1CCC2(CC1)Cc1ccccc1NC2=O	–	inactive: -6.16%
O=C(Nc1cccc(Cl)c1)c1c(NC(=O)C(F)(F)F)sc2c1CCCC2	inconclusive: 31.6 µM [inhibitor, single point]	–
COC(=O)CNC(=O)c1cc(-c2cccnc2)c2nncn2n1	active: 100 µM	–
O=C(NCc1nnc2c(-c3nc(C4CC4)no3)cccn12)c1nccc2ccccc12	inconclusive: 28.2 µM [inhibitor, single point]	–
COC(=O)c1c(C)[nH]c(C(=O)N2CCCC2c2cc(OC)ccc2OC)c1C (stereo not drawn)	–	inactive: -10.2%
CCCC1CCC(c2ccc(OC(=O)c3cccnc3)cc2)CC1 (stereo not drawn)	–	inactive: 11.3%
COC(=O)c1ccc(Cl)cc1NC(=O)N1CC(C)Oc2ccccc21 (stereo not drawn)	inconclusive: 31.6 µM [inhibitor, partial curve, poor fit]	–
COc1ccc(NC(=O)CSc2nnc(CN3CCOCC3)n2C)cc1Cl	–	inactive: 14.8%
CCN(CC)c1cc(CCC(=O)NCc2cccs2)ccn1	inconclusive: 17.8 µM [inhibitor, single point]	–
Cc1cccc(CNC(=O)c2c(C)noc2-c2ccc3c(c2)OCO3)c1	active: 31.6 µM	–
Cc1nnnn1CCCN1CCc2onc(-c3ccc(C(F)(F)F)cc3)c2C1	inconclusive: 20 µM [inhibitor, partial curve, poor fit]	–
O=C(CSc1nc(-c2cccs2)nc2ccccc12)N1CCC1	inconclusive: 17.8 µM [inhibitor, partial curve, poor fit]	–
CC(C)(C)C(=O)Nc1nnc(Cc2ccc(Cl)cc2)s1	–	inactive: -13.7%
CCCCn1nc(C(=O)Nc2nc(-c3cccs3)cs2)c2ccccc2c1=O	–	inactive: 11.9%
COc1ccc(-c2ccc3c(N)c(C(=O)NC(C)C)sc3n2)cc1OC	inconclusive: 39.8 µM [inhibitor, partial curve, poor fit]	–
